Test results reported in the supplement of paper PMC11417369.
± gives the standard deviation of the averaged measurements. The list shows a part of the results.

test system: PfAP2-G AP2 domain (GST-tagged); test: gcPBM binding intensity (ln(normalized median fluorescence intensity)); higher = stronger DNA binding
How it was run: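 Binding intensity values are the highest Masliner-normalised natural-log median intensity among replicate spots of either probe orientation. The binding step lasted 1 h in 1× PBS with 1% milk, 0.2 mg/ml BSA, 0.5% salmon testes DNA and 0.03% Triton X-100, using GST-tagged P. falciparum DNA-binding domains expressed in E. coli on an Agilent 4 × 180k array of primer-extended double-stranded 36-bp intergenic genomic probes plus negative controls. Alexa488 anti-GST antibody and a 488 nm scan detected bound protein.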

| Sequence | gcPBM binding intensity (ln) |
| --- | --- |
| AATTATATACATAAGTGTACATAATATATAAACATA [XGTACX_site793] | 11.1 ± 0.65 |
| TTTTCAATTAATAATACACACATGTATTTATTATTA [CACACA_site5774] | 9.815 ± 0.007 |
| TGTTGTAAATTAAAGACATGCACGTGAGAAAATATA [TGCATGCA_site285] | 10.4 ± 0.3 |
| TTATTTATTTTTTATACACACAATTATCATTTTAAG [CACACA_site22] | 10 ± 0.11 |
| TTTTCTATGCTAAACACACTCATTGTTACAAGTTTT [CACACA_site5531] | 10.01 ± 0.021 |
| TATATATATTTTATATGTACGTATGGAACAATATGA [XGTACX_site8167] | 11.4 ± 0.92 |
| ATGTTCATTATATGCACACATATATATAAATGTAAT [CACACA_site2908] | 9.865 ± 0.049 |
| TATCATAAAAAATATACACACAAAGGATATATATAT [CACACA_site1571] | 9.78 ± 0.085 |
| TAAGTTTATTGAAATTGTACAAACATAAATGTAAAA [XGTACX_site162] | 10.9 ± 0.61 |
| TTATATTTTTTTTTTTCACACACATTTATATTGTAT [CACACA_site9025] | 9.95 ± 0.028 |
| TATACTAAGAAGTATTTACACACCAACAAGGCGAAA [CACACA_site8963] | 10.2 ± 0.16 |
| AAATTAAGTATATATTGTACACATAATATGATTGTA [XGTACX_site3083] | 11.2 ± 0.75 |
| TTATTTTCATATAGGTGTACATAAAAATATTCTTAT [XGTACX_site8861] | 11.6 ± 0.82 |
| TTAATTAGAAATCATACACACATATAAATAAATATA [CACACA_site6225] | 9.93 ± 0.15 |
| TGTGCCTATAAATTAACACACAGAAATATATAGAGA [CACACA_site818] | 10.07 ± 0.071 |
| TTATTCTGACAGAATTGTACTAATGTCTTTAAAAAA [XGTACX_site1256] | 10.8 ± 0.55 |
| TATTTGTTTGTTCGGGTGCTTACATATATTCTTATA [GTGCAC_site9972] | 10.4 ± 0.28 |
| AATTATATAATCTTATAACATAATATAATAACATTT [CACACA_negctrl_site187] | 9.48 ± 0.16 |
| AATATAAATAAAAACACACACAATGGTACAGATATA [CACACA_site5930] | 10.9 ± 0.41 |
| AATTTAAATTAGAATTGTACTAGAAAAGGAATATAT [XGTACX_site6162] | 10.9 ± 0.53 |
| AAAAAAAAAAAATAGACCTCCTAAGCAAAAGAAAAA [GTGCAC_negctrl_site634] | 10.2 ± 0.35 |
| TATATAAGCGCATGCACACGCAAAGGTATATAAATA [CACACA_site622] | 10 ± 0.11 |

| Sequence | gcPBM binding intensity (ln) |
| --- | --- |
| CATACATACGGACACACACACATATATATATATATA [CACACA_site5598] | 11.2 ± 0.83 |
| ATAATGTTTCTTTCAACACACAAAAAATGAACACAT [CACACA_site1552] | 10.3 ± 0.2 |
| AAAAAAGAAAAAAGGACACACATAAATATACTCACG [CACACA_site2904] | 11.2 ± 0.91 |
| TATACATACATACATACACACACACCGATATATATA [CACACA_site7896] | 10.1 ± 0.16 |
| TAATGACTGAAAAATTGTACATATGTATATATGTAT [XGTACX_site2415] | 10.8 ± 0.31 |
| ATTCTATTATAATATTCACACACTAACGTAAATCAT [CACACA_site2750] | 10.1 ± 0.26 |
| ATAATTTTCCATATTTGTACATATTTTTTTCCCTTG [XGTACX_site8146] | 11 ± 0.49 |
| ATTTAGAAAAAATATACACACAGCCTAAACATGCAT [CACACA_site4067] | 9.965 ± 0.078 |
| AATATAAGCAAATACACACACACATATATATATATA [CACACA_site3805] | 10 ± 0.18 |
| AAATGTTGAAAAATATGTACATATTATATATATTAT [XGTACX_site1165] | 11.3 ± 0.93 |
| TAAGAAAGACAAAAAAAATGAAAAGAAAAAAAATGA [CACACA_negctrl_site1469] | 9.745 ± 0.035 |
| AAATGTTCTTAAAAATGAATAATATATATATATATA [CACACA_negctrl_site796] | 9.88 ± 0.46 |
| ATATTTATTATTATATGTACGTAACATCTTTATAAA [XGTACX_site7016] | 11.5 ± 0.98 |
| CATAAATACATACATACACACATATATATATATATA [CACACA_site2106] | 10.1 ± 0.23 |
| TATTTATTTGTTTAAGGTACAGAACAAATTTTTATT [XGTACX_site7414] | 11 ± 0.74 |
| ATTGATTATTTTCTAGTGCATAAAATAATTTTTTTT | 9.79 ± 0.14 |
| AGTGTCATATAAAATTGTACTTTTTTTTTTTTCTTT [XGTACX_site5651] | 11.5 ± 0.82 |
| ATATACATATTATAATGTACATATTTTAATAACCTT [XGTACX_site7617] | 11.2 ± 0.65 |
| TTATCCTATACAAGGGAAAAATAAAATAAAATAAAT [TGCATGCA_negctrl_site272] | 9.79 ± 0.13 |
| TAAAAAATATTATATACACACAGTATAAAAAAAAAT [CACACA_site4012] | 9.89 ± 0.12 |
| TATTTCTTTTGGTTGGTGCATAAAATAATACAATAT [GTGCAC_site9916] | 10.4 ± 0.32 |
| CAGACCTCTTTGTCATGTACATAAAAAAATAAAGAA [XGTACX_site7887] | 11.2 ± 0.83 |

| Sequence | gcPBM binding intensity (ln) |
| --- | --- |
| ATAAAAATAATATCATGTACATATGTGTATTGTATT [XGTACX_site1768] | 11 ± 0.49 |
| TACAAAAAGTTATACACACACGTACCTATAAATAGA [CACACA_site6571] | 10.9 ± 0.51 |
| TATAAACAGACGAAAACACACATATGTAAATATATA [CACACA_site4428] | 10 ± 0.085 |
| ATGAAAAAAAAAAAAAAAAAAAAAAAAAAAAAAAAA [CACACA_negctrl_site1405] | 9.725 ± 0.092 |
| CTTGTACCTAGAAATACACACAATTATATAACTTAT [CACACA_site2838] | 11 ± 0.61 |
| ATAAATGAAGATAAATTAAAAAAAAAAAAAAAAAAA [CACACA_negctrl_site992] | 9.58 ± 0.41 |
| GAATGTATTCATAAATGTACTTATAATATTATAATA [XGTACX_site3466] | 11.2 ± 0.81 |
| ATAACATACATAACAACACACAATATTTATATGTAT [CACACA_site210] | 9.85 |
| AATACATAAATATTTTGTACATATTATATAAAATAT [XGTACX_site1627] | 10.8 ± 0.52 |
| CGACTTTTAAAATATACACACATATATATATATATA [CACACA_site825] | 10.1 ± 0.4 |
| TATAAGAAAATAATGTGTACTAAATAATAAATGCAT [XGTACX_site1204] | 11.3 ± 0.9 |
| CCACATGAGATGATTACACACATATAAATATTTACA [CACACA_site6222] | 10.05 ± 0.042 |
| ACTTTTTAATAATAATAATTATATATATATATATAT [TGCATGCA_negctrl_site459] | 9.98 ± 0.33 |
| ATATATATTTAATTTACACACAAAAAAAATTGTTGG [CACACA_site961] | 9.94 |
| TCCATTCTATTTTTTACACACGTATGTAAATATTAT [CACACA_site2686] | 10.3 ± 0.26 |
| ACGAATTAAATGGATTAATATATATATGTATATTTA [CACACA_negctrl_site1512] | 9.63 ± 0.2 |
| TTAAATACTTTTCGAAGTACATTATATATATAATAT [XGTACX_site7530] | 11.2 ± 0.69 |
| CGCAACACTATTTGGGTGCTCTTCAAAAAAAAAAAA [GTGCAC_site9598] | 10 ± 0.33 |
| AGAATATATATAATAGTGCAATGTACAATGAACAAA [GTGCAC_site9577] | 10.7 ± 0.34 |
| AAAAAAAAATATATTGCACACCTCTCAATAAAAAAA [CACACA_site172] | 10 ± 0.3 |
| ATTTGCTTTTATTTTACACACTTGCTCCTGTTGTAC [CACACA_site1088] | 10.9 ± 0.42 |
| TGTTTAACATTTATATGTACATATATTCACATATTA [XGTACX_site342] | 11.1 ± 0.67 |

| Sequence | gcPBM binding intensity (ln) |
| --- | --- |
| TGATTTTTTTTTTTTTTTTTTTTTTTTTTAGTTTGC [CACACA_negctrl_site1057] | 9.63 ± 0.14 |
| TAAAATATAAGACACACACACATATATTTATATATC [CACACA_site6248] | 9.96 ± 0.099 |
| TACCAAATCACCCCTTGTACCCATTTTAAAATTTTC [XGTACX_site396] | 11.3 ± 0.72 |
| ATAAACAGATCATATACATGCATATATGTAGAATAA [TGCATGCA_site157] | 9.765 ± 0.021 |
| ATTCTAATTACATATACACACAAAGGTTCATAACAA [CACACA_site3076] | 10.2 ± 0.22 |
| TATATAAATGTATACACACACATATAAATATAAATA [CACACA_site6751] | 10.1 ± 0.18 |
| TAACTACTAGAAAAAACACACAAAAAGTAAATATAT [CACACA_site2740] | 10.045 ± 0.007 |
| TTCCCATGTAATATTAAACACACACCCATATAACAC [CACACA_site7905] | 10.7 ± 0.52 |
| ACATACGAAAATTGGAAGGATAGATAAAAAGAAAAT [CACACA_negctrl_site51] | 9.88 ± 0.13 |
| ACGTAGTAGGTATTATGTACATATTTATAAGTATAA [XGTACX_site7336] | 11.3 ± 0.64 |
| ACATGTTCATAATTTTGTACATATTTTTATGAACAT [XGTACX_site3976] | 11.1 ± 0.69 |
| GTACAGATGTAGTATGCATGTAATTATATATAAATT [TGCATGCA_site292] | 11.1 ± 0.47 |
| ATATAAAAAAGAGGGAGTACTTGTAACAAAATAATA [XGTACX_site8679] | 11.5 ± 0.65 |
| GCGTAGTTCGGAAGGGTGCTTTTTTGTTAATAAAAA [GTGCAC_site9592] | 10.2 ± 0.33 |
| AAAAAGCAGGATTATACACACAAATATTTATATGTT [CACACA_site6634] | 9.82 ± 0.11 |
| TTCTCTATAAATGCTGCACACACATTTAATTATTTA [CACACA_site8828] | 10.1 ± 0.13 |
| ATTTCTTTTTTTTCTTGTACACATATTAAATTTATG [XGTACX_site734] | 11.3 ± 0.81 |
| TTATGTTATAAATACACACACAAAAGAAAAAAAAAA [CACACA_site7414] | 10.2 ± 0.3 |
| TCCCATAATATTAGTAGTACTATTAATATTTTCAGG [XGTACX_site4925] | 11.3 ± 0.8 |
| AATATTTATTTTTTTGCACACATATTTTACATTTTA [CACACA_site3182] | 10 ± 0.21 |
| GTAAAATTTCGGATTTGTACACATGGCTATGAAAAA [XGTACX_site939] | 11.2 ± 0.68 |
| TCTAAACAAATTAATAAAATAAGTATTCAAAATTAT [CACACA_negctrl_site731] | 10.1 ± 0.18 |
